In PubChem BioAssay AID686978 (National Center for Advancing Translational Sciences (NCATS), 2013):
Hit rate of the full screen: of about 420,000 compounds, about 64,000 (15%) were called active. The shares of active, inactive and inconclusive entries below differ from those in the screen. Calls come from the whole dose curve; as a rule, active = well fitted inhibition curve with a large enough effect; inconclusive = small, poorly fitted or top-dose-only effect; inactive = flat fitted curve, though single readings scatter. Potencies of inconclusive entries are left out as doubtful fits.

Assay: qHTS for Inhibitors of human tyrosyl-DNA phosphodiesterase 1 (TDP1): qHTS in cells in absence of CPT; note: nearly all actives have a fitted effect of over 55% in size
Conditions: DT40 Tdp1-/- hTDP1 cells, no CPT, ATP luminescence, 48 h; activity change, negative = growth inhibition: at 46.2 µM (top of the series) unless noted
Summary of the method: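 No-CPT arm: Tdp1-/-;hTDP1 DT40 cells (400/well) plus compounds, incubated ≥48 hr at 37 °C. Readout CellTiter-Glo luminescence.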
% is set by controls: 0 for no effect and ±100 for the full control effect; potency is the fitted concentration of half-maximal effect; tags give direction and shape of the fitted curve.

| Compound | Potency | activity change, negative = growth inhibition |
| --- | --- | --- |
| Fc1ccc(N2CCN(C(=S)NCc3ccco3)CC2)cc1 | inconclusive [inhibitor, single point] | – |
| COc1ccc(-c2c(C(=O)c3ccccc3)[nH]c(N)c2C(=O)c2ccc(Br)cc2)cc1OC | inconclusive [inhibitor, single point] | – |
| COc1ccccc1OCCC(=O)O | inactive | – |
| COc1ccc(C(=O)c2[nH]c(N)c(C(=O)NCCc3c[nH]c4ccccc34)c2-c2ccc(Cl)cc2)cc1 | inconclusive [inhibitor, single point] | – |
| COc1ccccc1NC(=O)Nc1nc(C(N)Cc2ccccc2)cs1 (stereo not given) | active: 18.4 µM | – |
| CCN(CC)c1ncnc2c1ncn2[C@H]1CN(Cc2cccnc2)C[C@@H](CO)O1 | inactive | – |
| N#CCc1ccc(NS(=O)(=O)c2ccc(N3CCCC3=O)cc2)cc1 | inconclusive [inhibitor, partial curve] | – |
| O=C(c1ccc2c(c1)N(Cc1cccc(Cl)c1)C(=O)c1ccccc1S2=O)N1CCC(Cc2ccccc2)CC1 (stereo not given) | active: 4.61 µM | – |
| Nc1ccc(Oc2ncccn2)cc1 | active: 23.1 µM | – |
| CCCOc1ccc(N2C(=O)CC(N3CCC(c4nncn4CC)CC3)C2=O)cc1 (stereo not given) | inactive | – |
| CC1=C(C(=O)Nc2ccc(C)cc2C)C(c2cccc(Cl)c2)n2nc(C(=O)OC(C)C)nc2N1 (stereo not given) | inconclusive [inhibitor, single point] | – |
| COCc1cc(=O)oc2cc(NS(=O)(=O)c3ccc(C)cc3)ccc12 | inconclusive [inhibitor, partial curve, poor fit] | – |
| NC(=O)CSC1=Nc2ccccc2C2=NC(CC(=O)NCc3cccs3)C(=O)N12 (stereo not given) | inactive | – |
| CN(C)S(=O)(=O)Oc1ccc(C(=O)Nc2cccc(Cl)c2)cc1 | inactive | – |
| Cc1ccc(OCC(=O)Nc2ccc(N3CCN(C(=O)c4ccco4)CC3)cc2)c(C)c1 | active: 8.2 µM | – |
| O=C(Nc1cc(F)cc(F)c1)c1ccc(NCCCN2CCCCCC2)c([N+](=O)[O-])c1 | inconclusive [inhibitor, single point] | – |
| COc1cc(NC(=O)c2c(F)cccc2F)nc(OC)n1 | – | inconclusive: -11.5% [inhibitor] |
| CC[N+]1(CC(=O)c2ccc(I)cc2)CCCCC1 | inactive | – |
| COc1nnc(-c2ccc(N3CCCCC3)c(NC(=O)c3ccc(C)cc3)c2)c2ccccc12 | inactive | – |
| Cc1cc(C)c(NC(=S)N2CCN(c3ccc([N+](=O)[O-])cn3)CC2)cc1C | inconclusive [inhibitor, partial curve] | – |
| O=C(c1cccc([N+](=O)[O-])c1)N1CCN(c2ccc(Nc3ccccc3)nn2)CC1 | active: 20.6 µM | – |
| O=C(NCCCn1ccnc1)c1cc2cc([N+](=O)[O-])ccc2oc1=O | – | inconclusive: -35.1% [inhibitor] |
| CC(NC(=O)Cc1ccc(S(=O)(=O)N2CCOCC2)s1)c1ccc(Cl)c(Cl)c1 (stereo not given) | inconclusive [inhibitor, single point] | – |
| Clc1ccc(CSc2nnc(-c3cccnc3)n2Cc2ccco2)c(Cl)c1 | inconclusive [inhibitor, partial curve] | – |

| Compound | Potency | activity change, negative = growth inhibition |
| --- | --- | --- |
| CC(=O)C[C@@H]1OC[C@H](C(C)C)N1S(=O)(=O)c1ccc(C)cc1 | inconclusive [inhibitor, single point] | – |
| Cc1cc(C)c(C)c(OCC(=O)O/N=C(\N)c2ccncc2)c1 | inconclusive [inhibitor, single point] | – |
| CCOc1ccc(NC(=O)CCCn2c(C)c3cnn(-c4ccccc4)c(=O)c3c2C)cc1 | inconclusive [inhibitor, single point] | – |
| O=S(=O)(c1ccc(-c2cnc(C3CC3)o2)cc1)N1CCN(c2ccc(F)cc2)CC1 | active: 0.411 µM | – |
| O=C(c1ccc([N+](=O)[O-])s1)N1CCN(c2cccc(Cl)c2)CC1 | active: 20.6 µM | – |
| O=C1CCCC(=O)N1c1ccc(O)cc1 | inactive | – |
| CCC(=O)NC(=S)N1CCN(c2ccc([N+](=O)[O-])cc2Cl)CC1 | inconclusive [inhibitor, single point] | – |
| N#CCCn1cc(C(=O)Nc2ccccc2Br)c(-c2cccs2)n1 | – | inconclusive: -30.7% [inhibitor] |
| CCn1nc(C)c2c(-c3ccccc3)cc(=O)n(C(C)C(=O)NCCc3ccc(Cl)cc3)c21 (stereo not given) | inconclusive [inhibitor, single point] | – |
| Cc1ccc2nc(-c3cccc(NC(=O)c4ccco4)c3)[nH]c2c1 | inactive | – |
| O=C(O)C1CC=CCC1C(=O)Nc1ccccc1Cl (stereo not given) | active: 23.1 µM | – |
| Cc1ccc2[nH]c(=O)c(CN(CCCN3CCOCC3)C(=O)Nc3ccc(Cl)cc3)cc2c1 | active: 16.4 µM | – |
| O=C(CN(Cc1ccccc1)C(=O)CSc1nnc(COc2ccccc2)o1)NC1CCCC1 | inconclusive [inhibitor, partial curve, poor fit] | – |
| CCc1cc2c3c(c1)C(C)CC(C)(C)N3C(=O)/C2=C1\SC(=O)NC1=O (stereo not given) | inconclusive [inhibitor, single point] | – |
| CCOc1cccc(CNCCCSc2nnnn2C)c1 | inactive | – |
| Cc1ccc(-c2nn3cnnc3c3ccccc23)cc1C | inconclusive [inhibitor, partial curve] | – |
| CCO[C@@H]1OC(C(=O)N2CCN(Cc3ccc4c(c3)OCO4)CC2)=C[C@H](C2CC2)[C@H]1CCCO | inconclusive [inhibitor, single point] | – |
| Cc1ccc(-c2ccc([C@H]3[C@H]4C=CC[C@@H](C)[C@@H]4C(=O)N3Cc3ccccc3)c(F)c2)cc1 | inconclusive [inhibitor, single point] | – |
| O=C(c1ccncc1)N1CCC2(CCN(Cc3cc(C(F)(F)F)cc(C(F)(F)F)c3)CC2)CC1 | inconclusive [inhibitor, single point] | – |
| CCN(CC)C(=O)c1[nH]cnc1C(=O)Nc1cccc(Cl)c1 | inconclusive [inhibitor, single point] | – |
| CC(=O)OCCCN(C)CC/C=C1/c2ccccc2CSc2ccccc21 | inconclusive [inhibitor, single point] | – |
| C=CCOc1ccc(NC(=O)C(=O)NCCCn2ccnc2)cc1 | inactive | – |
| CC(=O)Nc1ccc(S(=O)(=O)Nc2cc(C)cn(Cc3ccccc3)c2=O)cc1 | active: 7.31 µM | – |
| CC(=O)Nc1cccc(Oc2ccc([N+](=O)[O-])cc2Cl)c1 | inconclusive [inhibitor, partial curve, poor fit] | – |

| Compound | Potency | activity change, negative = growth inhibition |
| --- | --- | --- |
| CCc1ccccc1Nc1nn2c(=O)c3ccc(C(=O)NC(C)C)cc3nc2s1 | inactive | – |
| CC(=O)Nc1cncc(-c2ccccc2N(C)C)n1 | inactive | – |
| O=c1oc2ccccc2c(Nc2cccc3ccccc23)c1[N+](=O)[O-] | inconclusive [inhibitor, single point] | – |
| Cc1ccc(OCC(=O)Nc2cccc(S(=O)(=O)N3CCCC3)c2)cc1C | inconclusive [inhibitor, single point] | – |
| COc1cccc(-c2cn3c(n2)sc2cc(C(=O)NC4CCCCC4)ccc23)c1 | inconclusive [inhibitor, partial curve, poor fit] | – |
| CCOC(=O)C1=CCN(S(=O)(=O)c2ccccc2Cl)C1c1ccccc1 (stereo not given) | active: 23.1 µM | – |
| COc1ccc(N2C(=O)C(C)C(Cc3ccc(C)cc3)C2=O)cc1 (stereo not given) | inactive | – |
| COc1cccc(N2C(=O)C3C(C2=O)C3(c2ccccc2)c2ccccc2)c1 (stereo not given) | inconclusive [inhibitor, single point] | – |
| NC(=O)C1=C[C@H](c2ccc(Br)cc2)C[C@H](OCc2ccc(CO)cc2)O1 | active: 20.6 µM | – |
| O=C1C=C(c2ccccc2Oc2ccccc2)C[C@@H](c2ccc(F)cc2)C1 | inconclusive [inhibitor, single point] | – |
| COC(=O)CSc1nc2cc(OC)ccc2cc1C#N | inconclusive [inhibitor, partial curve] | – |
| COc1ccc(N2Cc3ccccc3C2=O)cc1 | inconclusive [inhibitor, partial curve] | – |
| O=C(c1ccc(Cl)cc1)C1CCN(C(=O)C2CC2)CC1 | inconclusive [inhibitor, single point] | – |
| CC(Oc1ccc(Cl)cc1Cl)c1nc(-c2ccccn2)no1 (stereo not given) | inconclusive [inhibitor, partial curve] | – |
| O=C(Cn1c(=O)n(Cc2ccco2)c(=O)c2oc3ccccc3c21)Nc1ccccc1 | inconclusive [inhibitor, single point] | – |
| CNC(=S)N/N=C/c1ccc(OCc2ccccc2)c(Br)c1 | active: 10.3 µM | – |
| COC(=O)CSc1ncnc2c1sc1nc3c(cc12)COC(C)(C)C3 | inconclusive [inhibitor, single point] | – |
| COc1ccc(OC)c(S(=O)(=O)N2CCN(c3ncccn3)CC2)c1 | active: 14.6 µM | – |
| COc1cc(NC(=O)C2CCN(c3cnccn3)CC2)cc(OC)c1 | inactive | – |
| O=C(COc1ccc2ccc(=O)oc2c1)Nc1ccc(N2CCOCC2)cc1 | – | inconclusive: -30.1% [inhibitor] |
| CC(C)(C)OC(=O)NCc1ccc(NC(=O)c2nc[nH]c2C(=O)N[C@@H](Cc2ccccc2)C(=O)OCc2ccccc2)cc1 | inconclusive [inhibitor, single point] | – |
| N#Cc1ccc(-c2nc3cc(Cl)ccc3c(=O)n2O)cc1 | inconclusive [inhibitor, single point] | – |
